Measured values from the supplement of paper PMC3334620.
Whole data set: some 33,000 sequences, median “E-score (-0.5 to 0.5)” near -0.054, cut for the highest 2% near 0.39. Some of the results follow.

These sequences were tested against Ylr278c (UniProt Q05854) (assay: PBM E-score (8-mer binding enrichment) (E-score (-0.5 to 0.5)); higher = stronger / more preferred TF binding; most listed sequences are background and not binding sites). Details: protein concentration: 200 nM; construct: GST-DNA-binding domain.
Procedure: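 Universal 'all 10-mer' protein binding microarrays (Agilent AMADID 015681) probed with GST-tagged S. cerevisiae TFs (full-length or DBD) made by in vitro transcription/translation (PURExpress), about 100-200 nM. Bound TF was detected with fluorescent anti-GST. Each ungapped 8-mer (which stands for itself and its reverse complement) is scored by the PBM enrichment score (E-score), a modified Wilcoxon-Mann-Whitney statistic from -0.5 to +0.5, computed with the Universal PBM Analysis Suite. Scale: above 0.35 generally sequence-specific binding.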

Sequence	PBM E-score
GTGATAGA	-0.0764
GCGGAAGC	0.272
CTGGGACC	-0.274
CCGCGATC	0.259
CATTCCAC	-0.0106
CTGCTCAA	-0.251
AACCATAG	0.0626
ACTGTGAC	-0.145
GGCAAGCA	-0.135
GGCTTAGA	-0.256
AACTCCAG	0.00847
GGATGACA	0.0528
ATCCAAGG	0.0179
CTTAGTTA	-0.191
ACAGTCGG	0.211
TAACACGA	-0.00428
AGTCCTAA	-0.163
TGGACTAA	-0.188
ACACACGT	-0.224
AGCAAAAA	0.0154
ACTATCGG	0.308
CAATGTCA	-0.169

Sequence	PBM E-score
CTTCCGTA	0.215
ACGTAATC	0.00425
TCACGGCA	0.121
CCGAGGCG	0.189
ACTCTGTG	-0.143
CCACATCA	0.0135
ATGGATTC	-0.137
AACCCCGG	0.458
ACCCCTGA	0.0621
AAGGTCAT	-0.145
CGGTGCCC	0.138
AATTGAGT	0.044
CTGTAACA	-0.335
AAAAAAGT	-0.092
GTCAGTGA	-0.182
TCCGATCA	0.385
ACATATAT	-0.0474
ACGACGGC	0.0705
CACTACGG	0.201
AGTGACGG	0.17
ACTTTGCC	0.0108
AGAGAAAA	0.0726

Sequence	PBM E-score
ATTGGACG	-0.00534
GTATATAA	-0.169
CCCTTTGC	-0.106
ATTTCGGC	0.275
AGTGTTTA	-0.00365
CAGCTGCC	0.124
AGCCAAGA	-0.157
ACAATCCA	-0.0581
AACTTAGC	-0.178
AGATAAAG	-0.131
ATTTAAAT	-0.0559
GGATTGCC	0.145
ATGACTCG	0.0162
ACACGAGC	-0.169
CAAGCATG	-0.186
CAATTCAA	-0.19
ACCTTAAT	-0.182
AATCGGGC	0.0936
CATTCGCG	0.246
CGACGGGC	0.2
CTAACGGC	0.114
AGAGGCAT	0.0417

Sequence	PBM E-score
AGACATAC	-0.178
CCAGCAAC	0.0323
CGGATTTA	0.451
AAAGAGAC	-0.0916
ATGCATCG	0.171
AGTGTGAA	-0.0842
AGCGTCCG	0.16
GAATGTTA	0.148
AATTTAGG	0.00015
ACGGCGAC	0.14
ACTCCGGC	0.476
GATGCTAA	-0.0101
AAGCATAA	-0.0791
GACAACTA	-0.117
ATCGTAGC	-0.122
GATTGGCA	-0.2
ACGAGCCT	-0.218
ACCAGCAA	0.117
CTACCCTC	-0.162
AGCTAGAC	-0.174
